The whole screen tested about 370,000 compounds, of which about 150 (0.041%) were called active. The shares of active, inactive and inconclusive entries below differ from those in the screen. The call rests on the fitted dose curve; in most records, active means well fitted inhibition curve with a large enough effect; inconclusive means small, poorly fitted or top-dose-only effect; inactive means flat fitted curve, though single readings scatter. No potency is given beside an inconclusive call; the fits are too rough.
Molecular target: Beta-lactamase (Escherichia coli (strain K12)) (UniProt P00811)
UniProt P00811, sequence (P00811 whole entry, looked up): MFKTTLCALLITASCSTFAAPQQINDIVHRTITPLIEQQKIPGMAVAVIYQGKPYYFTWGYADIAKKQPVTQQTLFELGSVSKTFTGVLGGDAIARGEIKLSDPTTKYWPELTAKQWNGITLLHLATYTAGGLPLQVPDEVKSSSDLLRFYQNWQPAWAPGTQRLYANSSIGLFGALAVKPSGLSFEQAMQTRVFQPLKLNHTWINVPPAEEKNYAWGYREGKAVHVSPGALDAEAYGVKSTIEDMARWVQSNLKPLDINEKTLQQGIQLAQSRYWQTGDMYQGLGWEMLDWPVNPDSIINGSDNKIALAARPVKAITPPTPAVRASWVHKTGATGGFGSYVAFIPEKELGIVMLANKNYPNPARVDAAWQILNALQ
Assay: qHTS Inhibitors of AmpC Beta-Lactamase (assay with detergent); further: nearly all actives have a fitted effect of over 25% in size
Conditions: AmpC hydrolysis of nitrocefin, absorbance 480 nm, 0.01% Triton; series mostly up to 114 µM
Method in brief: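 AmpC (5.3 nM in the dispensed reagent) in 20 mM phosphate pH 7.0 with 0.01% (detergent screen) or 0.0001% Triton X-100 was preincubated with compounds for 15 min at room temperature. Nitrocefin was then added from an 800 uM solution, and hydrolysis was followed at 480 nm.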
Potency means the concentration at half of the fitted maximal effect; tags describe the fitted curve by direction and shape.

Structure (SMILES) | Potency
OC1(c2cccc(C(F)(F)F)c2)CCN(Cc2nnnn2Cc2ccccc2)CC1 | inactive
COCCn1c(C)cc(C(=O)COC(=O)c2ccc([N+](=O)[O-])o2)c1C | inactive
COC(=O)C(NC(C)=O)(Nc1nc2c(s1)CCCC2)C(F)(F)F (stereo not given) | inconclusive [inhibitor, full curve, poor fit]
COc1ccc(CCCC(=O)NCCc2ccccc2)cc1 | inconclusive [inhibitor, full curve, poor fit]
O=C(CSc1nccn1-c1cccc(Cl)c1)NC1CCCC1 | inconclusive [inhibitor, full curve, poor fit]
COc1ccc(O)c(C(=O)c2cc(C(=O)NCCc3ccccc3)c(=O)n(CCc3ccccc3)c2)c1 | inactive
Cc1ccc(/C=C/c2onc(C)c2S(=O)(=O)N2CCC(C(=O)Nc3ccc(Br)c(C)c3)CC2)cc1 | inactive
Cc1ccc(SCC(=O)NCCN2C(=O)CSC2=O)cc1C | inactive
CCNC(=S)NN=C1CCC(C(C)(C)C)CC1 (stereo not given) | inconclusive [inhibitor, single point]
N#Cc1ccc(NC(=S)NC(=O)CCc2ccc(S(=O)(=O)N3CCOCC3)cc2)cc1 | inconclusive [inhibitor, single point]
CC1CCC(C(=O)NC(C(=O)OCC(=O)c2ccc(Br)cc2)C(C)C)CC1 (stereo not given) | inactive
NS(=O)(=O)c1ccc(NC(=O)CSc2ccc3ccccc3n2)cc1 | inactive
CN(C)c1cccc2c(S(=O)(=O)N3CCOCC3)cccc12 | inconclusive [inhibitor, full curve, poor fit]
O=C(NC1CCN(C(=O)c2cccc([N+](=O)[O-])c2)CC1)c1ccccc1 | inactive
CCc1nc(N2CCN(C(=O)c3ccccc3)CC2)c(C#N)c2c1COC(C)(C)C2 | inconclusive [inhibitor, full curve]
CC(C)Cc1nnc(NS(=O)(=O)c2ccc(Cl)cc2)s1 | inconclusive [inhibitor, full curve]
CCOc1cc(CNCCc2ccc(S(N)(=O)=O)cc2)ccc1OCC(=O)NC(C)(C)C | inactive
Cn1c(SCC(=O)NCCNC(=O)CSc2nnc(C(F)(F)F)n2C)nnc1C(F)(F)F | inconclusive [inhibitor, full curve, poor fit]
Cc1cccc(CN2C(=O)c3ccccc3Sc3ccc(C(=O)NC4CCCCC4)cc32)c1 | inactive
COc1ccc(NC(=O)N(Cc2ccc(C)cc2)Cc2cccnc2)c(OC)c1 | inconclusive [inhibitor, partial curve]

Source: PubChem BioAssay AID485294 (National Center for Advancing Translational Sciences (NCATS), 2010)
